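These data come from cells grown in 96-well plates and exposed to compound for 48 hours at five concentrations. Here, GI50 denotes the concentration required for 50% inhibition of growth. TGI is the concentration that stops growth completely.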

In this assay the test system is NCI-H322M lung. Put plainly: inhibition of tumour cell growth, NCI panel, 48 h.
As for `COc1ccn2c(C(C)=O)cc(C(=O)c3ccc4c(c3)Sc3ccccc3N4)c2c1`, the GI50 is 0.163 µM and the TGI is over 100 µM.
For the compound `Cc1nc2ccc(F)cc2c2c1CCO2`, the TGI is over 100 µM.
Regarding `COc1ccc(-c2cc(-c3ccccc3)nc(N3CCN(CCNc4ccnc5cc(Cl)ccc45)CC3)n2)cc1`, the GI50 is 10.3 µM and the TGI was found to be 23.3 µM.
In the case of `CCCc1c(O)c(=O)c2c(OC)cc(OC)c3c4c(OC)cc(OC)c5c(=O)c(O)c(CCC)c(c1c23)c54`, the TGI is 10.7 µM.
In the case of `C=C(C)[C@@H]1CC[C@]2(C(=O)NCCNCCNCCN)CC[C@]3(C)[C@H](CC[C@@H]4[C@@]5(C)CC[C@H](O)C(C)(C)[C@@H]5CC[C@]43C)[C@@H]12`, the GI50 is 15.1 µM and the TGI is 32.5 µM.
`C=C1CC2(C[C@@H](c3ccccc3)O[C@@H](c3ccccc3)C2)OC1=O` (stereo partly drawn) gave a TGI of 16.6 µM.
`Cc1nc(-n2[nH]c(C)c(CCO)c2=O)[nH]c(=O)c1CCO` returned a TGI of over 100 µM.
Regarding `COc1ccc(-c2cnnn2-c2cc(OC)c3c(c2)OCO3)cc1`, the GI50 is 0.673 µM and the TGI was over 100 µM.
In turn, `O=c1[nH]c(=O)n(COCCO)c2ccc(Br)cc12` came in with a TGI of over 100 µM.
The same measure, in the same setting: as for `O=c1c2cccc3cccc(c4oc5c6cccc7cccc(c(=O)c5c14)c76)c32`, the figure is over 31.6 µM.
Regarding `Cn1ccc2c(c1=O)C(=O)c1nccc3c1c-2nc1ccccc13`, the GI50 was 1.78 µM and the TGI worked out at 3.38 µM.
The matching figures for `NC(=NC1CCCCCCC1)c1ccc(N2CCN(c3ccc(C(N)=NC4CCCCCCC4)cc3)CC2)cc1`: 12.7 µM and 26.9 µM.
Consider `N#CCCSC1SC(=C2SC3=C(SCCS3)S2)SC1SCCC#N` (stereo not drawn), for which the TGI was over 100 µM.
`CS(=O)(=O)c1ccc(-c2cnc(N)c(C(=O)Nc3ccccc3)n2)cc1`: the GI50 is 8.37 µM and the TGI was over 100 µM.
The compound `CCOC(=O)c1sc2nc(SC)nc3c2c1NCN3c1ccc2c(c1)OCCCO2` gave a TGI of over 100 µM.
For the compound `Nc1ccc(C(=O)NN2C(=O)C(Cl)C2c2cc(Br)ccc2O)cc1` (stereo not drawn), the TGI is over 100 µM.
As to `CCN1CCN(CC(=O)Nc2nc3ccc(NCc4ccc(Cl)cc4)cc3s2)CC1`, the GI50 was 2.52 µM and the TGI stood at 6.6 µM.
For `Cc1ccc(/C=C2/SC(Nc3nc(-c4nc(NC5=NC(=O)/C(=C\c6ccc(C)cc6)S5)sc4C)c(C)s3)=NC2=O)cc1`, the GI50 was 0.892 µM and the TGI amounted to 8.53 µM.
For the compound `NC(=O)NO`, the TGI is over 2500 µM.
For `CC(C)(O)C1CCC(Nc2ccc3ncc(-c4cccc(C(F)(F)F)c4)n3n2)CC1` (stereo not drawn), the GI50 is 2.63 µM and the TGI worked out at 29.1 µM.
In the case of `O=C1c2ccc3c4c5ccc(c24)C(=O)N1CCCOCCCCOCCCNCc1ccc(cc1)CNCCCOCCCCOCCCN(C3=O)C5=O`, the GI50 was 1.02 µM and the TGI stood at 2.43 µM.
`Cc1ccccc1NC(=O)C(=O)CC(=O)c1sc(Nc2ccccc2[N+](=O)[O-])nc1C` registered a TGI of over 100 µM.
As for `COc1ccc(N=Nc2ccc3oc(=O)c(C(=O)Nc4ccccc4)cc3c2)cc1`, the TGI was over 10 µM.
Compound `COc1cc(Cn2c(=S)ss/c2=N\C(=S)N(C)C)cc(OC)c1OC` had a TGI of over 100 µM.
On the same count and under the same terms, as for `CCOP1(=O)C=C(Sc2ccc([N+](=O)[O-])cc2[N+](=O)[O-])C(C)(C)O1` (stereo not drawn), the figure is 39.2 µM; as for `C=CCN(N=O)C(=O)N(CCCC(NC(C)=O)C(=O)NCc1ccccc1)Cc1ccccc1` (stereo not drawn), over 100 µM.
The compound `CC1=C(O)C(=O)C[C@]2(C)[C@H]3CC=C4[C@@H]5CC(C)(C)CC[C@@H]5C(=O)[C@H](O)[C@@]4(C)[C@]3(C)CC[C@@H]12` displayed a TGI of over 50 µM.
`COc1ccccc1N1C(Cl)C(=O)C1c1c[nH]c2ccccc12` (stereo not drawn): the TGI is over 100 µM.
In turn, `CCOC(=O)C1=C(NNC(=O)Cc2ccccc2)CSC1=Nc1ccccc1` had a TGI of over 100 µM.
Consider `OCC1OC(Oc2cc(O)cc(/C=C/c3ccc(O)cc3)c2)C(O)C(O)C1O` (stereo not drawn), for which the TGI is over 100 µM.
Take `CC(=O)Nc1ccccc1C=C1c2ccccc2-c2ccccc21`: the TGI is over 100 µM.
The same measure, in the same setting: the same measure for `NNC(=O)CCC(=O)Nc1cc(Cl)c(Cl)cc1Cl`: over 100 µM; for `C=CCOC1=C(OCC=C)C(C2COC(C)(C)O2)OC1=O` (stereo not drawn): over 100 µM.
Same read-out and setting: the same measure for `CC1CC(c2cccc3c2OCO3)=Nc2ccccc2S1` (stereo not drawn): over 100 µM; for `O=C(Cc1ccccc1)NN1C(=O)C(Cl)C1c1ccc([N+](=O)[O-])cc1` (stereo not drawn): over 100 µM; for `CCN(CC)c1ccc(C2SCC(=O)N2c2ccc(NC(=O)c3ccc(N4C(=O)CSC4c4ccc(N(CC)CC)cc4)cc3)cc2)cc1` (stereo not drawn): over 100 µM.
Turning to `CC(=O)O[C@@H]1[C@H]2[C@@H](OC(=O)c3ccccc3)[C@@H](C)C[C@]2(O)[C@H](OC(C)=O)[C@@]2(C)[C@@H]3CC(C)(C)C(=O)[C@]3(OC(C)=O)C[C@@]12C`, the TGI is over 25 µM.
Still for that read-out and setting: the same measure for `O=C(N/N=C/c1ccc([N+](=O)[O-])cc1)c1cccc2nc3ccccc3nc12`: over 74.2 µM; for `O=C(O)CSCC(=O)O`: over 100 µM.
In turn, `COC1(O)C(=O)c2ccccc2OC1(OC)c1ccccc1` (stereo not drawn) yielded a TGI of over 100 µM.
The compound `COc1cccc(Nc2nc(-c3cccs3)nc3ccc(Br)cc23)c1` displayed a TGI of over 100 µM.
In turn, `CC(C)C1OC2(C)OC(=N)C1(C#N)C(C#N)(C#N)C2C` (stereo not drawn) registered a TGI of over 100 µM.
`Nc1c(Br)c(=O)[nH]c(=O)n1COCCO` displayed a TGI of over 100 µM.
With `Fc1cccc2cc3ccc4cccc5ccc(c12)c3c45`, the TGI is over 100 µM.
Regarding `C=C1C(=O)OC2C1CC[C@H](C)C13OC(=O)CC1[C@@]23C` (stereo partly drawn), the TGI was over 100 µM.
`O=Cc1cn(Cc2cccc(Cl)c2)c2ccccc12`: the GI50 was 9.45 µM and the TGI was determined as 28.8 µM.
Compound `OCC1OC(NCCNCCNC2OC(CO)C(O)C(O)C2O)C(O)C(O)C1O` (stereo not drawn) yielded a TGI of over 100 µM.
With `O=C1CC(c2ccc3c(c2)OCO3)Nc2cc3c(cc21)OCO3` (stereo not drawn), the GI50 was 0.97 µM and the TGI is over 100 µM.
Regarding `O=C1/C(=C/c2ccc3c(c2)OCO3)CCC1CN1CCOCC1` (stereo not drawn), the TGI was found to be 30.6 µM.
The compound `C=C(C(=O)O)C1CCC(CC/C=C(\C)CC/C=C(\C)CCC=C(C)C)CO1` (stereo not drawn) returned a TGI of 40.6 µM.
As to `Cc1cc(C)nc(NC(=S)Nc2ccccc2Cl)c1`, the TGI was over 100 µM.
The same measure, in the same setting: as for `Nc1ccc(C2NC(=O)Cc3c2ccc2ccccc32)cc1` (stereo not drawn), the figure is over 100 µM; as for `COc1ccc(C2C3CCc4ccccc4C3=NN2S(=O)(=O)c2ccc(Cl)cc2)cc1` (stereo not drawn), over 100 µM; as for `CN(C(=O)c1ccc(Cl)cc1)C(=S)N1CCN(c2ccccn2)CC1`, over 100 µM.
On to `c1cc(CSP234N5CCN2CCN3CCN4CC5)ccc1CSP123N4CCN1CCN2CCN3CC4`, for which the TGI was over 100 µM.
As for `COc1cc2c3c(n(CCCNCC(OC)OC)c(=O)c2cc1OC)-c1cc2c(cc1C3=O)OCO2`, the GI50 is 13.7 µM and the TGI is 35.8 µM.
Take `Cc1nc2sc(C(=O)Nc3cccc4ccccc34)c(N)c2cc1C(=O)/C=C/c1ccccc1`: the GI50 was 1.81 µM and the TGI was over 50 µM.
On to `c1ccc(C(c2ccccc2)[P+](c2ccccc2)(c2ccccc2)c2ccccc2)cc1`, for which the TGI is 13.3 µM.
`c1cc(CCN2CCCCC2)ccn1` displayed a TGI of over 100 µM.
The compound `Cc1ccc(S(=O)(=O)NNC(=O)c2sc(-c3nc(C)c(C(=O)NNS(=O)(=O)c4ccc(C)cc4)s3)nc2C)cc1` showed a TGI of over 100 µM.
Still for that read-out and setting: as for `O=c1[nH]/c(=C/c2ccc(OCc3ccccc3)cn2)c(=O)[nH]/c1=C/c1ccc(Cl)cc1`, the figure is over 100 µM.
Regarding `O=C(/C=C/c1cccs1)c1ccc(Nc2nc(Nc3ccc(F)cc3)nc(Nc3ccc(F)cc3)n2)cc1`, the GI50 was 15.2 µM and the TGI was over 100 µM.
`CCO[C@@H]1CCC(S(=O)c2ccc(C)cc2)=CO1` (stereo partly drawn) returned a TGI of over 100 µM.
In turn, `C=C(C)C(=O)OC1CC2=CC(CC3(C)OC3C3OC(=O)C(=C)C13)OC2=O` (stereo not drawn) showed a TGI of 31 µM.
With `COc1ccc2c(c1)c(-c1nc(-c3c[nH]c4ncccc34)cs1)cn2CCCCN1CCOCC1`, the GI50 is 1.82 µM and the TGI is 5.13 µM.
Take `N#Cc1cccc(C(=O)Nc2cccc(NC(=O)c3cccc(C#N)c3)c2)c1`: the GI50 is 43 µM and the TGI is over 100 µM.
The compound `CSc1nc(-c2ccc(C)cc2)c(C#N)c(=O)[nH]1` gave a TGI of over 100 µM.
For the compound `N#Cc1c(-c2ccc(Cl)cc2)c(C#N)c(=O)n(NS(=O)(=O)c2ccccc2)c1S`, the TGI was over 100 µM.
Same read-out and setting: as for `CC1(C)C2CCC(N)(C2)C1N` (stereo not drawn), the figure is over 100 µM; as for `COc1ccc(C2C(=O)C(Cl)N2Nc2nc(C)cc(=O)[nH]2)cc1OC` (stereo not drawn), over 100 µM.
In turn, `COc1ccc(N(C)Sc2ccccc2)cc1` yielded a TGI of over 100 µM.
On to `C=CCOc1ccc(/C(N=Nc2ccccc2)=N/NC(=O)c2ccccc2)cc1OC`, for which the TGI is over 100 µM.
For the compound `O=C(O)C(O)Cc1ccccn1` (stereo not drawn), the TGI was over 100 µM.
On to `COc1cc2c(cc1OC)CC(=O)c1cc(OC)c(OC)cc1/C=C\2`, for which the TGI was over 12.5 µM.
Turning to `Cc1ccc2c(c1C)-c1c(ccc(C)c1C)C(=O)C2=O`, the TGI was 4.39 µM.
For `O=C1c2cc3c(cc2CC12Cc1cc4c(cc1C2=O)CCC4)CCC3`, the TGI is over 100 µM.
`CN(C)CCCNc1ncnc2nc[nH]c12` had a TGI of over 100 µM.
`Cn1ccnc1C(=O)/C=C/c1ccc(CC(=O)Nc2ccc(S(F)(F)(F)(F)F)cc2)cc1`: the GI50 was 2.11 µM and the TGI came to 4.58 µM.
With `O=C1C=C[C@@]23C[C@@H](Nc4c(O)c5c6c(c42)=NCCC=6C=N5)SC3=C1`, the GI50 is 10.8 µM and the TGI was 23.5 µM.
For `COc1ccc(-c2cc(-c3ccc(Nc4ccnc5cc(Cl)ccc45)cc3)nc(N)c2C#N)cc1`, the TGI is over 100 µM.
For `CC(CN1CCN(C)CC1)CN1c2ccccc2Sc2ccc(C(F)(F)F)cc21` (stereo not drawn), the GI50 is 4.9 µM and the TGI was 19 µM.
As for `CN(c1ccc(NC(=O)Nc2ccc(OC(F)(F)F)cc2)cc1)c1ccnc(Nc2cccc(S(N)(=O)=O)c2)n1`, the GI50 is 4.27 µM and the TGI is 8.85 µM.
In turn, `COC(=O)C1CC=C(SC(=O)c2ccccc2)N1C(=O)c1ccccc1` (stereo not drawn) returned a TGI of over 100 µM.
On to `CN(CC(=O)O)c1ccc(/C=C/c2ccnc3ccccc23)cc1`, for which the TGI amounted to 36 µM.
As to `COc1ccc(-c2nnc(SCC(=O)Nc3ccc(/C(C)=N\O)cc3)n2-c2ccccc2)cc1OC`, the GI50 was 4.41 µM and the TGI was over 100 µM.

Source of the values: PubChem BioAssay (NCI).
